# This is one part of the list. Further columns of the screen follow, without active or inactive calls. Most of these compounds were active or inconclusive in the main read-out, so they are no random draw.
# Experiment: growth inhibition of WT strain, primary screen, mitochondrial fusion inhibitor project, WT and mutant strains, chemical genetic (AID 1362); also: tested in S. cerevisiae
# Conditions: mitochondrial fusion phenotypic screen, at 10 µM
row,Structure (SMILES),inhibition [%]
1,COc1ccccc1/C=C\C=N\n1c(-c2ccc(Cl)cc2Cl)n[nH]c1=S,14.6
2,CCS(=O)(=O)CCSc1nc2c(cc1C#N)CCCC2,35.4
3,COc1ccc(C(=O)/C=C/c2ccc(O)cc2)c(O)c1CC=C(C)C,73.2
4,CC1=C(C)/C(=N\OS(=O)(=O)c2ccccc2)C=CC1=O,79.3
5,Cc1ccc(COc2ccccc2C(=S)N2CCCC2)cc1,38.4
6,CCn1cc(C(=O)OCC(=O)c2cc(C)n(-c3cccc(C(F)(F)F)c3)c2C)c(=O)c2ccc(C)nc21,0.14
7,CN1CCN(C(=O)c2cc(COc3c(F)cccc3F)on2)CC1c1ccccc1 (stereo not given),73
8,CCOC(=O)N1CCN(S(=O)(=O)c2ccc(C)c(C)c2)CC1,-2.03
9,COc1cnc(-c2ccccn2)nc1Sc1ccc(F)cc1,64.7
10,Cc1cc(C)c(OC2(c3ccccc3)OC(=O)c3ccccc32)c(C)c1 (stereo not given),44.5
11,Cc1ccc(CN=Cc2[nH]c3ccc(Br)c(Cl)c3c2O)cc1,39.8
12,COC(=O)c1ccc(NC(=O)Nc2ccc(F)c(Cl)c2)cc1,7.47
13,Cc1csc(NC(=O)c2c(O)c3c(n(CC(C)C)c2=O)CCCC3)n1,-10.7
14,Cc1cccc(N/N=C(\C=N\N)C(=O)c2ccc(Br)cc2)c1,-4.1
15,COc1ccc(C)cc1N(C(=O)c1ccc(F)cc1)c1nc2ccccc2s1,22
16,Cc1cccc(C)c1OCCOC(=O)c1n[nH]c2ccccc12,32.7
17,O=C(Nc1ccc(N2CCCCC2)cc1)c1ccccn1,41.5
18,C(=N\NC1=Nc2cccc3cccc1c23)/c1ccccn1,36
19,CCOC(=O)c1c(-c2ccccc2)csc1NC(=O)CSc1nncs1,26.8
20,C/C(=N\N=C(/N)SC1CC(=O)N(c2cccc(Cl)c2)C1=O)c1cccs1 (stereo not given),18.5
21,CCOC(=O)c1sc(NC(=O)/C=C/c2cnn(C)c2C)c(C(=O)OC(C)C)c1C,-7.06
22,COc1ccc2c(c1)CCc1c(C(=O)N3CC4(C)CC3CC(C)(C)C4)noc1-2 (stereo not given),29.1
23,Cc1ccc(C(C)C)c(OCc2ccc(C(=O)N/N=C/c3ccc(O)cc3O)cc2)c1,0.49
24,CC1CCCC(NC(=O)CNC(=S)N(Cc2ccccc2)Cc2cccs2)C1C (stereo not given),28.4
25,CCOC(=O)c1c(-c2ccc(C)o2)csc1NC(=O)CN1CCCCC1,76.5
26,Cc1ccccc1N1CCN(c2ncnc3scc(-c4cccs4)c23)CC1,-1.42
27,Cc1ccc(NC(=S)Nc2ccc(Cl)c(Cl)c2)c(OC(F)F)c1,79.8

row,Structure (SMILES),inhibition [%]
1,CCCCCOc1ccc(CSC(=N)N)cc1[N+](=O)[O-],59.4
2,COc1ccc(C(=O)N2c3cc4c(cc3C(C)=CC2(C)C)OCO4)cc1,18.5
3,Cc1ccc(C(NC(=O)NC(C)c2ccccc2)C(Cl)(Cl)Cl)cc1F (stereo not given),0.88
4,Cc1cccc(N(CC(O)CON=C2c3ccccc3-c3ccccc32)S(C)(=O)=O)c1 (stereo not given),20.4
5,O=C(CN1CCc2ccccc2C1)Nc1ccccc1N1CCCCCC1,0.61
6,CCOC(=O)c1cc([N+](=O)[O-])c([N+](=O)[O-])cc1NC(C)=O,75.2
7,CCC(C)Nc1c([N+](=O)[O-])cc(C)cc1[N+](=O)[O-] (stereo not given),7.39
8,O=C(Nc1ccc(OC(F)(F)F)cc1)Nc1cccc([N+](=O)[O-])c1,77.7
9,Cc1cccc(Nc2nc(N)c([N+](=O)[O-])c(N3CCCC(C)C3)n2)c1 (stereo not given),64.1
10,CCC(C)n1c(SCc2ccccc2)nc2ccsc2c1=O (stereo not given),12.9
11,COC(=O)COC(=O)c1ccccc1NC(=O)c1ccccc1,70.3
12,CO/N=C(\Cn1ncc(NC2CCCCC2)c(Br)c1=O)c1ccc(Cl)cc1,37.8
13,COc1ccc(C2CC(c3ccccc3)=NN2C(=O)COC(=O)C2(C)CC2(Cl)Cl)cc1 (stereo not given),52.4
14,CCOC(=O)C1=C(C)n2c(s/c(=C/c3cccc([N+](=O)[O-])c3)c2=O)=NC1c1ccc(O)c(OC)c1 (stereo not given),21.3
15,c1ccc2c(c1)nc(CN1CCOCC1)n1c3ccccc3nc21,0.47
16,O=C(Nc1ccc(OCC(F)(F)C(F)F)c(C(F)(F)F)c1)c1ccccc1O,70.8
17,Cc1c(C(=O)NCCSCc2ccc(Cl)cc2Cl)cccc1[N+](=O)[O-],36.1
18,CCO[C@H]1OC(C(=O)Nc2ccccc2)=C[C@@H](c2csc3ccccc23)[C@@H]1CCCO,22.4
19,Cc1ccccc1Nc1nc(NCc2ccco2)c2ccccc2n1,78.5
20,CCOc1cc(S(=O)(=O)Nc2ccccc2CC)ccc1Cl,41.5
21,O=C(Cn1c(/C=C/c2ccccc2)nc2ccccc21)Nc1ccc(F)cc1,53.9
22,Fc1ccccc1NC(=S)Nc1ccc(Br)cc1,39.1
23,O=C(CCN1C(=O)/C(=C\c2cccs2)SC1=S)NC1=NCCS1,22.3
24,O=C(CSc1nnc(-c2c[nH]c3ccccc23)o1)N(Cc1ccccc1)c1ccc(F)cc1,17.4
25,NC(=O)c1ccc(NC(=O)CCCN2C(=O)c3ccccc3C2=O)cc1,-0.3
26,O=C(COC(=O)c1ccncc1)Nc1cc(Cl)c(Cl)cc1Cl,-34.9
27,Cc1ccc(N(CC(O)Cn2c3ccccc3c3ccccc32)S(C)(=O)=O)c(C)c1 (stereo not given),9.88

row,Structure (SMILES),inhibition [%]
1,O=C(Oc1c(Cl)cc(Cl)c2cccnc12)c1cccs1,57.7
2,CC1CC(C)(C)Nc2ccc(N=O)cc21 (stereo not given),46.3
3,CCOC(=O)c1c(NC(=O)C2CCN(S(=O)(=O)c3cccs3)CC2)sc(C)c1C,12.4
4,CC1CCN(C(=O)CCc2ccc(Oc3cc([N+](=O)[O-])cc([N+](=O)[O-])c3)cc2)CC1,27.1
5,NS(=O)(=O)c1ccc(N2N=C(c3ccc(Br)cc3)CC2c2ccc(F)cc2)cc1 (stereo not given),59.1
6,Cc1nc2ccccc2n1/N=C/c1ccc([N+](=O)[O-])s1,41.6
7,O=C(Nc1ccc(Oc2cccc3ccccc23)cc1)c1ccco1,67.9
8,O=c1[nH]c(=O)n(Cc2ccco2)c2c1C(C(F)(F)F)(C(F)(F)F)N=C(Cc1ccccc1)N2,8.48
9,C/C(=N\Nc1nc(N2CCCCCC2)nc(N2CCCCCC2)n1)c1ccccc1,5.82
10,Cn1c(-c2c(N)n(-c3ccccc3)c3nc4ccccc4nc23)nc2ccccc21,41
11,Cc1cccc(N2CCN(Cc3nc(-c4cccc(Cl)c4)oc3C)CC2)n1,46.6
12,O=S(=O)(NC1CCCCC1Oc1ccccc1)c1ccc(Cl)cc1 (stereo not given),14.5
13,Cc1ccccc1N=Nc1c(C)[nH]n(C(N)=S)c1=O,57.4
14,Clc1cccc(COn2c(-c3ccc(Cl)cc3Cl)nc3ncccc32)c1,42.3
15,Cc1cc(CN2CCN(CCC#N)CC2)c(O)c(C2(C)CCCCC2)c1,43.1
16,CCOc1ccc(NC(=S)N(Cc2ccc(N(C)C)cc2)Cc2ccco2)cc1,16.8
17,CNC(=S)Nc1ccc(C23CC4CC(CC(C4)C2)C3)cc1,48.3
18,Cc1c(Cl)cccc1NC(=O)c1nc(C)n(-c2cc(OC(C)C)c(Cl)cc2Cl)n1,55.2
19,CC(C)(C)c1ccc(C(O)CCCN2CCC(C(O)(c3ccccc3)c3ccccc3)CC2)cc1 (stereo not given),77.7
20,CSc1ccccc1NC(=S)N/N=C/c1cccn1Cc1ccc(F)cc1,43.9
21,CCOC(=O)C1CCN(c2c(C(=O)c3ccccc3)cnc3ccc(CC)cc23)CC1,72.2
22,COc1cc(OC)nc(Oc2ccccc2C(=O)Oc2ccc(F)cc2Cl)n1,29
23,CC(C)/C(=N/Nc1ccccc1[N+](=O)[O-])c1ccccc1,0.75
24,Cc1ccc(CSc2nnc3c(n2)OC2(Nc4ccccc4-3)C(=O)Nc3ccc(F)cc32)cc1 (stereo not given),45.4
25,O=S(Cc1cc(Sc2ccccc2)nc(-c2ccccc2)n1)c1ccccc1 (stereo not given),33.1
26,CCN1C(c2ccccc2)C(C)C(=O)C(C)C1c1ccccc1 (stereo not given),52.6
27,CCOc1cc(CNC(C)(C)CO)cc(Br)c1OCc1ccc(Cl)cc1Cl,85.3

row,Structure (SMILES),inhibition [%]
1,COc1ccc(-c2nc(C)ncc2N=Nc2ccccc2)cc1,8.31
2,CCN(Cc1ccccc1)C(c1ccc(C(F)(F)F)cc1)c1nnnn1C(C)(C)C (stereo not given),-0.15
3,Cc1cccc(OCCCC(=O)Nc2ccc3c(c2)OCO3)c1,0.74
4,COc1ccc(CNC(=O)[C@H](C)[C@@H]2C[C@@]2(C)[C@@H](NC(=O)OCc2ccccc2)c2ccccc2)cc1OC,10.1
5,Cc1cccc(C(=O)NC(NCCc2ccccc2)C(Cl)(Cl)Cl)c1 (stereo not given),23.8
6,O=C(NCCOc1ccc(Cl)cc1)c1ccc2ccccc2n1,36.5
7,Cc1ccc(-n2cc(CN(C)Cc3nccn3C)c(-c3ccc(F)cc3)n2)cc1,72.5
8,Cc1cc(C)c(C(=O)Nc2ccc(Br)c(C(F)(F)F)c2)c(C)c1,78.1
9,CCCCNC(=S)N/N=C/c1cc(C)ccc1C,18.3
10,CCc1ccc(-c2nc(CN3CCC(C(=O)NCCN(CC)c4ccccc4)CC3)c(C)o2)cc1,57.5
11,CCOc1cc(/C=N/NC(=O)COc2ccccc2C)ccc1OC(=O)c1cccs1,46.8
12,O=C(CN1CCN(c2ccccn2)CC1)N(c1ccccc1)c1ccc2ccccc2c1,-15.9
13,O=c1cc(CN2CCN(C/C=C/c3ccccc3)CC2)c2cc(O)c(-c3ccccc3)cc2o1,34.7
14,COc1ccc(-c2cc(C3CCN(c4cc(Cl)nc(N)n4)CC3)[nH]n2)cc1,26.8
15,COC(=O)c1cn(C(=O)c2ccc(C)cc2C)c2ccccc12,56.1
16,Cc1cc(Br)ccc1NC(=O)CN1C(=O)C2C3CC(c4ccccc4)C(C3)C2C1=O (stereo not given),-4.2
17,COc1ccccc1Cn1c(-c2ccccc2OC)nc2ccccc21,46.9
18,O=C(CSc1nc2ccccc2o1)Nc1nc(-c2ccccc2)cs1,45.4
19,Cc1ccc(Sc2c(C)nn(C(=O)C3CC3)c2C)cc1,38.5
20,COc1ccc(C=O)cc1CSc1nnc(COc2cccc3cccnc23)o1,40.3
21,Cc1cc(N2CCCCC2)nc(-c2ccc(Br)cc2)n1,59
22,Cc1ccccc1NC1=C(Cl)C(=O)N(C2CCCCC2)C1=O,6.47
23,C(=N\Nc1nc(N2CCCCCC2)nc(N2CCCCCC2)n1)/c1ccccc1,10.4
24,Cc1ccc(-c2csc3ncnc(SCc4ccc(C(=O)O)cc4)c23)cc1,45.5

# From PubChem BioAssay AID1362 (SRMLSC, 2008)
